Laboratory results as given in PubChem BioAssay AID1346428 (National Center for Advancing Translational Sciences (NCATS), 2018).
Several values for one entry are separate records, joined by “and”; a condition that tells them apart may be missing. Equal values may be shown once. The campaign covered roughly 48,000 compounds. About 1,200 (2.5%) were called active. Roughly 2% stayed inconclusive and do not appear here.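 How the source made its calls: active means activation of at least 60% and not above a set upper limit (about 1 call in 100 departs from these limits); inconclusive means activation of 40% to 60%, or above that upper limit; inactive means activation under 40%.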 Some of the results follow.

molecular target: Probable G-protein coupled receptor 32 (Homo sapiens) (UniProt O75388); experiment: qHTS for Agonists of Human Resolvin D1 Receptor DRV1; settings: CHO-K1 GPR32 beta-arrestin PathHunter luminescence, 90 min; at 76.9 µM; hits give high values; zero percent set by DMSO-only wells; further: 0% is about no effect
Outline: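 Luminescent readout of beta-Gal complementation quantifies ligand-induced beta-arrestin association with GPR32 in CHO-K1 cells; 90 min compound incubation at 37 °C, detection 1 h at room temperature.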

Sequence of UniProt O75388 (O75388 whole entry, looked up): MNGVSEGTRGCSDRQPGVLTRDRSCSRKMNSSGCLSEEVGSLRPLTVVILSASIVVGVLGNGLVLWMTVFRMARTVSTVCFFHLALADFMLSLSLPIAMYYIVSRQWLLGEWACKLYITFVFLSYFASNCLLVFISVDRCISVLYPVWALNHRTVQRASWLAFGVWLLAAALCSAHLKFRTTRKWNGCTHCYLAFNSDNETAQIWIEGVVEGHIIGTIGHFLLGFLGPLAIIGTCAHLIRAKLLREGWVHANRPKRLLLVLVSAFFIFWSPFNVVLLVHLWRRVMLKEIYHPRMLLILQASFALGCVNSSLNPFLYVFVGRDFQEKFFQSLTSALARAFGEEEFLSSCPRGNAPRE

| SMILES | activation |
| --- | --- |
| Fc1ccc(-n2ncc3c(NC4CCCCCC4)ncnc32)cc1 | active: 79.7% |
| CCOC(=O)c1c(C)oc2nc(C)nc(NCCCN3CCN(c4ccccc4)CC3)c12 | inactive: 6.37% |
| COC(=O)C(CCSC)NC(=O)C1CCN(c2ncnc3c2nc2n3CCCCC2)CC1 (centres undefined) | inactive: -1.09% |
| CCOc1ccc(NC(=O)CCc2c(C)nc3nc(C)nn3c2C)cc1 | inactive: 13.3% |
| N#Cc1ccccc1CN1C(=O)c2ccccc2Sc2ccc(C(=O)OCc3ccco3)cc21 | inactive: 2.92% |
| O=C(CCc1ccccc1)NCc1nc2cccnc2n1Cc1ccc(F)cc1 | inactive: -22.5% |
| CCOc1ccc(C(=O)N2CCC(c3nnc(-c4ccccc4OC)o3)CC2)cc1 | inactive: -3.25% |
| CCCCCCCC(=O)OCC(COC(=O)CCCCCCC)OC(=O)CCCCCCC | inactive: 9.45% |
| Oc1cc2c(cc1O)C(c1ccccc1)CNCC2 (centres undefined) | inactive: -9.52% |
| COc1ccccc1CNC(=O)c1ccc(Cn2c(SCc3ccccc3)nc3cccnc32)cc1 | inactive: -8.28% |
| CCNC(=O)CC1C(=O)N(c2ccc(F)cc2)C(=O)N1CCOC (centres undefined) | inactive: -9.26% |
| CCOC(=O)N1CCc2c(sc3c2c(=O)n(-c2ccccc2)c(=O)n3CC(=O)Nc2ccc(OC)cc2OC)C1 | inactive: -8.7% |
| COc1ccc(NC(=O)CN2CCN(Cc3ccccc3)S2(=O)=O)c(OC)c1 | inactive: -15.4% |
| CCOc1ccc(OCC)c(NC(=O)c2cc(S(=O)(=O)N3CCCC3)cn2C)c1 | inactive: -10.1% |
| O=c1c2sc3ccccc3c2n(Cc2cccc(Cl)c2)c(=O)n1Cc1ccco1 | inactive: -15.1% |
| CC(=O)c1ccc(NC(=O)CCc2c(C)nn(-c3ccc(N4CCOCC4)nn3)c2C)cc1 | inactive: -5.97% |
| Cc1cc(C)c(S(=O)(=O)NCCc2cc3ccc(C)c(C)c3[nH]c2=O)c(C)c1 | inactive: 18.8% |
| Cc1ccc(N2CCN(C(=O)C3CCN(S(=O)(=O)c4ccc5c(c4)oc(=O)n5C)CC3)CC2C)cc1 (centres undefined) | inactive: 15.7% |
| COc1ccc(-c2noc(-c3ccc(NCc4cccnc4)c([N+](=O)[O-])c3)n2)cc1OC | inactive: -3.99% |
| Cc1ccccc1OCCn1c(=N)n(C(C)C)c2ccccc21 | inactive: -7.57% |
| Cc1cc(NC(=O)c2cc(-c3cccc(Cl)c3)on2)n(-c2ccccc2)n1 | inactive: -2% |

| SMILES | activation |
| --- | --- |
| CCOc1ccc(C2=CC(c3cccc(Br)c3)n3c(nc4ccccc43)N2)cc1Cl (centres undefined) | inactive: -4.44% |
| Cc1cc(C)cc(-n2c(C)nc3cc(C(=O)O)ccc32)c1 | inactive: 8.45% |
| Cc1cccc(OCc2nc(CC(=O)Nc3ccc(C)c(C)c3)cs2)c1 | inactive: -6% |
| CCCn1c(CN2CCN(c3ccc(OC)cc3)CC2)nc2c1c(=O)[nH]c(=O)n2C | inactive: 10.8% |
| COc1cc(-c2cc3n(C)c(C)c(CCC(=O)O)c(=O)n3n2)cc(OC)c1OC | inactive: -5.23% |
| CCOc1ccc(NC(=O)C2CCN(C(=O)N3CC(C)Oc4ccc(Cl)cc43)CC2)cc1 (centres undefined) | inactive: -7.91% |
| Cc1ccc(CNC(=O)CCC(=O)N2CC3CCCN3c3ccccc32)cc1 (centres undefined) | inactive: -31% |
| CC(C)CC(=O)Nc1nnc(S(=O)(=O)N(CC(C)C)c2ccccc2)s1 | inactive: -12.1% |
| Cc1cc2oc(C(=O)Nc3ccc(S(=O)(=O)N(C)Cc4ccccc4)cc3)cc(=O)c2cc1C | inactive: -12.9% |
| O=C(Nc1ccc2oc(-c3cc(Br)ccc3Cl)nc2c1)c1cc2ccccc2o1 | inactive: -21.4% |
| Cn1c(=O)c2c(ncn2CC2OCCO2)n(C)c1=O | inactive: -2.8% |
| CCOc1cc2[nH]c(=O)n(CCC(=O)N3CCN(c4ccccc4)CC3)c(=O)c2cc1OCC | inactive: -3.88% |
| COC(=O)c1c(NC(=O)CS(=O)(=O)c2ccc(C)cc2)sc2c1CCCCC2 | inactive: -43.5% |
| Cc1ccc(-n2nc3c(N4CCCC(C(=O)NCc5ccccc5C)C4)nnc(C)c3c2C)cc1 (centres undefined) | inactive: -14.9% |
| COc1cccc(C(=O)NCc2cn3cccc(C)c3n2)c1 | inactive: -7.81% |
| Cn1c(=O)n(C)c2cc(CNCc3ccccc3Cl)ccc21 | inactive: 11.9% |
| Cc1ccc2scc(N3CCCC(C)C3)c(=O)c2c1 (centres undefined) | inactive: 5.89% |
| CCCn1c(=N)c(C(=O)NC(C)c2ccccc2)cc2c(=O)n3ccccc3nc21 (centres undefined) | inactive: 0.21% |
| O=C(c1ccc(Cl)cc1)n1nc(-c2ccccc2)nc1NCc1ccco1 | inactive: -20.4% |
| COc1ccc2c(c1)c1c(c(=O)n(-c3cc(Cl)ccc3C)c(=O)n1Cc1ccc(F)cc1)n2C | inactive: -2.34% |
| CCOc1ccc(S(=O)(=O)Nc2cc3c(C(=O)OCc4ccccc4)c(C)oc3c3ccccc23)cc1 | inactive: 12.6% |

| SMILES | activation |
| --- | --- |
| CCOc1ccc(NC(=O)c2nn(C)c3c2COc2ccccc2-3)cc1 | inactive: -27.8% |
| CC(C)c1ccc(NC(=O)CSC2=Nc3ccccc3C3=NC(CCC(=O)NCc4cccs4)C(=O)N23)cc1 (centres undefined) | inactive: -28.6% |
| Cc1ccc(NC(=O)N2CCN3CCCCC3C2)cc1C (centres undefined) | inactive: 0.413% |
| Cc1c(Cl)cccc1-n1ncc(C(=O)NC2CCCC2)c1C1CCN(C(=O)OC(C)(C)C)CC1 | inactive: -11.1% |
| Cc1cc(C)c(-c2n[nH]c3c2C(c2ccccc2F)N(CCO)C3=O)c(O)c1 (centres undefined) | inactive: -5.54% |
| CCCOC(=O)c1c(-c2ccccc2)c(-c2ccccc2)nn(C)c1=O | inactive: -18.8% |
| CC(=O)c1c(C)n(-c2cccc(Cl)c2)c2ccc(OC(=O)c3ccccc3)cc12 | inactive: 3.02% |
| COc1ccccc1C(=O)OCc1cc(=O)n2c(C)csc2n1 | inactive: 36.6% |
| CCSc1ncc(Cl)c(C(=O)Nc2cc(C)ccc2C)n1 | inactive: -2.64% |
| CC1=NS(=O)(=O)c2cc(Cl)ccc2N1 | inactive: -3.96% and inactive: 3.24% |
| COc1cccc(NC(=O)CSc2nc(=O)[nH]c3c2CCCC3)c1 | inactive: -4.15% |
| COc1ccc(-c2[nH]c(-c3ccc(C)cc3)nc2SCC(=O)NCC2CCCO2)cc1 (centres undefined) | inactive: -31.7% |
| COc1ccc(NC(=O)Cn2c(=O)n(Cc3ccco3)c(=O)c3sc4ccccc4c32)cc1Cl | inactive: -2.13% |
| O=C(Nc1ccc(Cl)cc1)c1ccc2c(c1)N(Cc1ccccc1)CCS2 | inactive: -23.9% |
| Cc1ccc(N2CCn3c2nc2c3c(=O)n(Cc3cccc(Cl)c3)c(=O)n2C)cc1C | inactive: -9.68% |
| CC(C)c1ccc(NC(=O)CN2C(=O)C3(SCC(=O)N3c3ccc(F)cc3)c3ccccc32)cc1 (centres undefined) | inactive: 9.01% |
| CCCOc1ccc(CC2C(=O)Nc3ccc(Br)cc32)cc1 (centres undefined) | active: 77.9% |
| CCCC12CN3CC(CCC)(CN(C1)C3c1c[nH]c3ccc(OC)cc13)C2=O (centres undefined) | inactive: -6.04% |
| O=C(CN1C(=O)CCSc2ccc(S(=O)(=O)N3CCCC3)cc21)Nc1ccccc1Cl | inactive: -5.19% |
| CCN(C(=O)CSc1nc2ccccc2nc1Cc1ccccc1OC)c1ccccc1 | inactive: -6.74% |
| CC(C(=O)NCc1ccccc1)n1ccc2cc(S(=O)(=O)N3CCCC3)ccc21 (centres undefined) | inactive: 5.29% |

| SMILES | activation |
| --- | --- |
| CCOc1ccccc1CNC(=O)CCc1cn(C)c2ccccc12 | inactive: -16.9% |
| CCSC1=NC2(CCN(C(=O)NC3CCCCC3)CC2)N=C1c1ccc(OC)cc1 | inactive: 15.4% |
| Cc1nc(CC(=O)Nc2ccc(C(N)=O)cc2)cs1 | inactive: -6.12% |
| Cc1ccc(C(=O)CC2(O)C(=O)N(CCc3ccccc3)c3ccc(Br)cc32)cc1 (centres undefined) | inactive: -6.68% |
| CCOCCCNC(=O)C(c1ccc(OC)cc1)N(Cc1cccs1)C(=O)CNC(C)=O (centres undefined) | inactive: -10.7% |
| CC(=O)Nc1ccc(S(=O)(=O)NC2(C(F)(F)F)C(=O)Nc3c2c(=O)[nH]c(=O)n3-c2ccc(C)cc2)cc1 (centres undefined) | inactive: -5.44% |
| CCc1cccc(NC(=O)CN2C(=O)COc3ccc(S(=O)(=O)N4CCC(C)CC4)cc32)c1 | inactive: -30.4% |
| COc1ccc(NC(=O)Cn2c(=O)n(Cc3ccccc3Cl)c(=O)c3cc(OC)c(OC)cc32)cc1 | inactive: 16.4% |
| CCOC(=O)c1cc2c(=O)n3ccccc3nc2n(CCCOC)c1=NC(=O)c1cc2ccccc2o1 | inactive: 5.07% |
| O=c1oc2ccc(Cl)cc2cc1-c1nc(-c2cccs2)no1 | inactive: -0.299% |
| COc1cccc(-n2c(C)nc3c(cnn3-c3ccc(C)c(C)c3)c2=O)c1 | inactive: 16.6% |
| Cc1ccc(Cn2c(C)c3cnn(CC(=O)N4CCN(c5cc(C)ccc5C)CC4)c(=O)c3c2C)cc1 | inactive: -2.68% |
| Cc1ccc(CCNC(=O)c2cc3ccccn3n2)cc1 | active: 111% |
| Cc1ccc(NC(=O)C2CCC(CNS(=O)(=O)c3cccs3)CC2)cc1C (centres undefined) | inactive: 2.33% |
| CCC(=O)N1c2ccc(S(=O)(=O)CCC(=O)NCc3ccc(OC)cc3)cc2CC1C (centres undefined) | inactive: 10.8% |
| CCOC(=O)C1CCN(C(=O)c2ccc(C)c(NC(=O)c3nsc4ccccc34)c2)CC1 | inactive: -22.6% |
| O=C(Cn1c(=O)c2ccccc2n(CC(=O)Nc2ccccc2F)c1=O)NCCc1ccccc1 | inactive: -4.35% |
| Cc1cc(C)c(S(=O)(=O)NCC(c2ccco2)S(=O)(=O)c2ccccc2)c(C)c1 (centres undefined) | inactive: -7.46% |
| O=S(=O)(Nc1ccc(OC(F)(F)F)cc1)c1ccc(N2CCCCS2(=O)=O)cc1 | inactive: -9.11% |
| CCc1cccc(C)c1Nc1c(-c2cccs2)nc2ncccn12 | inactive: -24% |
| CC(C)c1ccc(S(=O)(=O)NCc2nc3cccnc3n2Cc2ccc(F)cc2)cc1 | inactive: -18.9% |
